Test results as given in the supplement of paper PMC7125110.
± gives the standard error. Variants at the background level are over-represented here.

B1: glmS ribozyme (parent)
chain: AUAAAAGCGCCAGAACUACAGAAAUGUAGUUGACGAGGAGGAGGUUUAUCGAAUUUUCGGCGGAUGCCUCCAAA

Key:
Details in all cases: with glucosamine-6-phosphate
glucosamine-6-phosphate [1] = variants of: B1; assay: self-cleavage kobs at 40 uM GlcN6P; higher = faster cleavage; RNA array
Method in brief: (§1)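 Barcoded ribozyme variants on sequenced MiSeq chips were transcribed in situ by E. coli RNA polymerase and followed at 37 °C through a hybridised Cy3 probe. Glucosamine-6-phosphate at 40 μM to 10 mM in HEPES/KCl/Mg(OAc)2 buffer was flowed in, and tiles were imaged over ~14 h. Signals were normalised to baseline and to non-cleaving reference variants, and per-tile medians were fit to one- or two-exponential decays to give kobs. Weighted Michaelis–Menten fits across concentrations gave kcat and KM.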

glucosamine-6-phosphate [2] = variants of: B1; assay: self-cleavage kobs at 10000 uM GlcN6P; higher = faster cleavage; RNA array
Method in brief: as §1

glucosamine-6-phosphate [3] = variants of: B1; assay: self-cleavage kobs at 160 uM GlcN6P; higher = faster cleavage; RNA array
Method in brief: as §1

glucosamine-6-phosphate [4] = variants of: B1; assay: self-cleavage kobs at 2500 uM GlcN6P; higher = faster cleavage; RNA array
Method in brief: as §1

glucosamine-6-phosphate [5] = variants of: B1; assay: self-cleavage kobs at 640 uM GlcN6P; higher = faster cleavage; RNA array
Method in brief: as §1

| Variant | self-cleavage kobs at 40 uM GlcN6P (glucosamine-6-phosphate [1]) [s⁻¹] | self-cleavage kobs at 10000 uM GlcN6P (glucosamine-6-phosphate [2]) [s⁻¹] | self-cleavage kobs at 160 uM GlcN6P (glucosamine-6-phosphate [3]) [s⁻¹] | self-cleavage kobs at 2500 uM GlcN6P (glucosamine-6-phosphate [4]) [s⁻¹] | self-cleavage kobs at 640 uM GlcN6P (glucosamine-6-phosphate [5]) [s⁻¹] |
| --- | --- | --- | --- | --- | --- |
| C34U G43C U55A C71A | < 1e-05 | < 1e-05 |  |  |  |
| G29U G41A U65G | < 1e-05 |  |  |  |  |
| G35C A64C C70G | < 1e-05 |  |  |  |  |
| G35C G43A | < 1e-05 |  | < 1e-05 | < 1e-05 |  |
| G32U A36C A53U U54A G63U | < 1e-05 | < 1e-05 |  |  |  |
| G32A A33C C68G C71G | 5.72e-05 ± 1.6e-05 |  |  |  |  |
| G29U A52C U57A | < 1e-05 | < 1e-05 |  |  |  |
| C34A G40C U46C | < 1e-05 |  |  |  |  |
| U31G U45A | 0.000531 ± 0.00011 | 0.0291 ± 0.0063 | 0.00206 ± 0.0004 | 0.0105 ± 0.0037 | 0.00653 ± 0.0013 |
| U30G G37U U45C C71U | < 1e-05 | < 1e-05 |  |  |  |
| C34A A52C | < 1e-05 |  |  |  |  |
| G32U G38C U55A | < 1e-05 | < 1e-05 |  |  | < 1e-05 |
| C34U C61A C67G | 0.00044 ± 0.00014 |  |  |  | 0.000318 ± 0.00013 |
| G32C G59C | < 1e-05 | < 1e-05 |  |  |  |
| U31C G59U | < 1e-05 |  |  |  | < 1e-05 |
| G35C G44U | < 1e-05 | < 1e-05 | < 1e-05 |  | < 1e-05 |
| G32A G43A | < 1e-05 |  | < 1e-05 | < 1e-05 | < 1e-05 |
| G29U G37U G43A C58U | < 1e-05 | < 1e-05 |  | < 1e-05 | < 1e-05 |
| G35C C50G | 3.26e-05 ± 1.4e-05 | 0.000205 ± 1.5e-05 | 7.69e-05 ± 3.7e-05 | 0.000107 ± 1.2e-05 | 4.8e-05 ± 1.6e-05 |
| A33U U54A U56G C61U | < 1e-05 | < 1e-05 |  |  |  |
| U30C A42U C70A | < 1e-05 |  |  |  |  |
| A33U A42C U47G U54A | < 1e-05 | < 1e-05 |  | < 1e-05 | < 1e-05 |
| C34A G43U | < 1e-05 |  | < 1e-05 | < 1e-05 | < 1e-05 |
| U30G U31G U49G U69G | < 1e-05 |  |  | 6.45e-05 ± 2.7e-05 | 7.71e-05 ± 2.2e-05 |
| A33C A36G C67G | < 1e-05 |  |  |  |  |
| U30C C67G | < 1e-05 |  |  |  |  |
| U30C A33G U46G | < 1e-05 |  |  |  |  |

| Variant | self-cleavage kobs at 40 uM GlcN6P (glucosamine-6-phosphate [1]) [s⁻¹] | self-cleavage kobs at 10000 uM GlcN6P (glucosamine-6-phosphate [2]) [s⁻¹] | self-cleavage kobs at 160 uM GlcN6P (glucosamine-6-phosphate [3]) [s⁻¹] | self-cleavage kobs at 2500 uM GlcN6P (glucosamine-6-phosphate [4]) [s⁻¹] | self-cleavage kobs at 640 uM GlcN6P (glucosamine-6-phosphate [5]) [s⁻¹] |
| --- | --- | --- | --- | --- | --- |
| G29C G43U | < 1e-05 | < 1e-05 |  | < 1e-05 |  |
| U30C C50A A53G U69C C70G | 5.5e-05 ± 1.9e-05 |  |  |  |  |
| A33U A36U G51A | < 1e-05 | < 1e-05 |  |  |  |
| A33C A64C | < 1e-05 |  |  |  |  |
| A33G A36G | < 1e-05 | < 1e-05 | < 1e-05 | < 1e-05 | < 1e-05 |
| C34G A48G | < 1e-05 |  | < 1e-05 | < 1e-05 |  |
| G29C U45G U47G A48C G62A C70U | < 1e-05 | < 1e-05 |  |  |  |
| U31C G51A U65C | < 1e-05 |  |  |  | < 1e-05 |
| A33G G35U | < 1e-05 |  | < 1e-05 |  | < 1e-05 |
| G35C G43C C50U A53U U57A C68A | < 1e-05 | < 1e-05 |  |  |  |
| G32U U56A C61G C67A | 7.99e-05 ± 3e-05 |  |  |  |  |
| A33G U69C | < 1e-05 | < 1e-05 |  |  |  |
| A33U G60A C71G | < 1e-05 |  |  |  |  |
| A33G A36U A42U G60A C70U | < 1e-05 | < 1e-05 |  |  |  |
| G32C G60C | < 1e-05 |  |  | < 1e-05 | < 1e-05 |
| C34A A48C | < 1e-05 | < 1e-05 |  | < 1e-05 |  |
| G32C U45C A53C G62C | < 1e-05 | < 1e-05 |  |  |  |
| C34G A64C U65A | < 1e-05 |  |  |  |  |
| C34G U54A G66A C70U | < 1e-05 |  |  |  |  |
| A33C G43C C68U | < 1e-05 | < 1e-05 |  |  |  |
| G32U A39C U54A | < 1e-05 |  |  |  |  |
| U30G C67A | 6.13e-05 ± 1.3e-05 |  |  |  |  |
| U31A A33G U56A | < 1e-05 | < 1e-05 |  |  |  |
| G29C C34G | < 1e-05 | < 1e-05 |  | < 1e-05 | < 1e-05 |
| G35A U45G | < 1e-05 |  |  | < 1e-05 | < 1e-05 |
| G35A U45A | < 1e-05 | < 1e-05 |  | < 1e-05 | < 1e-05 |
| A33C G37A G62C | < 1e-05 | < 1e-05 |  | < 1e-05 | < 1e-05 |
